The list shows a part of the results.
What follows are molecules tested on HSkMC (human skeletal muscle cells) (assay: cytotoxicity call (relative viability < 0.9)). Details: 10 µM.
In the case of `CN(C)C(=O)C[C@H]1CC[C@H]2[C@H](COc3ccc(NS(=O)(=O)c4cccc(F)c4)cc3C(=O)N2C)O1`, the cytotoxicity call is reported as “inactive”.
In the case of `C[C@@H]1CCCCO[C@@H](CN(C)Cc2ccc(C(F)(F)F)cc2)[C@@H](C)CN([C@H](C)CO)C(=O)c2cc(NC(=O)Nc3ccc(C(F)(F)F)cc3)ccc2O1`, the cytotoxicity call is reported as “inactive”.
For `Cc1noc(C)c1NC(=O)N(C)C[C@@H]1Oc2c(NS(=O)(=O)c3ccccc3)cccc2C(=O)N([C@@H](C)CO)C[C@@H]1C`, the cytotoxicity call was “inactive”.
With `Cc1ccc(-c2ccc3c(c2)O[C@H](CN(C)Cc2cncnc2)[C@H](C)CN([C@H](C)CO)S3(=O)=O)cc1` the cytotoxicity call was “inactive”.
For `NS(=O)(=O)c1cc(-c2nn[nH]n2)c(NCc2cccs2)cc1Cl`, the cytotoxicity call was “inactive”.
With `C[C@@H]1CCCCO[C@H](CN(C)C(=O)c2ccncc2)[C@@H](C)CN([C@H](C)CO)C(=O)c2cc(NC(=O)CCCCCC(=O)Nc3ccccc3N)ccc2O1` the cytotoxicity call was “inactive”.
In the case of `C[C@@H]1CCCCO[C@H](CN(C)Cc2ccc(C(F)(F)F)cc2)[C@@H](C)CN([C@H](C)CO)C(=O)c2cc(NC(=O)CCCN(C)C)ccc2O1`, the cytotoxicity call is reported as “inactive”.
In the case of `CC(C)=CC[C@H]1O[C@]2(O)[C@@H]([C@H]3CC[C@@H]4[C@@]5(C)CC[C@H](O[C@@H]6O[C@H](CO[C@@H]7O[C@@H](C)[C@H](O)[C@@H](O)[C@H]7O)[C@@H](O)[C@H](O)[C@@H]6O)C(C)(C)[C@@H]5CC[C@@]4(C)[C@]3(C)[C@H]2O)[C@@]1(C)O[C@@H]1O[C@@H](C)[C@H](O)[C@@H](O)[C@H]1O`, the cytotoxicity call is reported as “inactive”.
`COCC(=O)N(C)C[C@H]1Oc2cc(C#CC(C)(C)O)ccc2S(=O)(=O)N([C@H](C)CO)C[C@@H]1C` was tested, and the cytotoxicity call was “inactive”.
For `O=C(C[C@@H]1CC[C@@H]2[C@H](COC[C@@H](O)CN2S(=O)(=O)c2ccccc2)O1)N[C@H]1CCN(Cc2ccccc2)C1`, the cytotoxicity call was “inactive”.
With `O=C(C[C@H]1CC[C@@H]2[C@H](COC[C@H](O)CN2C(=O)Nc2cccc(Cl)c2)O1)NCCCN1CCOCC1` the cytotoxicity call was “inactive”.
In the case of `Cc1ccc(S(=O)(=O)Nc2ccc3c(c2)C(=O)N([C@@H](C)CO)C[C@H](C)[C@@H](CN(C)Cc2ccc(C(F)(F)F)cc2)OCCCC[C@H](C)O3)cc1`, the cytotoxicity call is reported as “active”.
`Cc1noc(C)c1S(=O)(=O)N(C)C[C@@H]1OCCCC[C@@H](C)Oc2ccc(N(C)C)cc2C(=O)N([C@H](C)CO)C[C@H]1C` was tested, and the cytotoxicity call was “inactive”.
`C[C@H](CO)N1C[C@H](C)[C@H](CN(C)CC2CCOCC2)Oc2cc(-c3cccnc3)ccc2S1(=O)=O` was tested, and the cytotoxicity call was “inactive”.
For `CC(C)NC(=O)Nc1ccc2c(c1)C(=O)N([C@@H](C)CO)C[C@@H](C)[C@H](CN(C)C(=O)Nc1ccc(F)cc1)OCCCC[C@H](C)O2`, the cytotoxicity call was “inactive”.
With `COCC(=O)Nc1ccc2c(c1)OC[C@H](C)N(Cc1ccccc1F)C[C@@H](C)[C@H](OC)CN(C)C2=O` the cytotoxicity call was “inactive”.
For `COc1ccc(S(=O)(=O)N(C)C[C@@H]2Oc3c(NC(=O)c4cnccn4)cccc3C(=O)N([C@H](C)CO)C[C@H]2C)cc1`, the cytotoxicity call was “inactive”.
In the case of `COc1ccc(-c2cnc3c(c2)C(=O)N([C@H](C)CO)C[C@H](C)[C@H](CN(C)S(=O)(=O)c2ccc(F)cc2)O3)cc1`, the cytotoxicity call is reported as “inactive”.
For `C[C@@H]1CN([C@@H](C)CO)C(=O)c2c(c3ccccc3n2C)-c2ccccc2CO[C@@H]1CN(C)C(=O)Nc1cccc(F)c1`, the cytotoxicity call was “inactive”.
For `COc1ccc(S(=O)(=O)N(C)C[C@@H]2Oc3ccc(NC(=O)Nc4c(C)noc4C)cc3C(=O)N([C@H](C)CO)C[C@H]2C)cc1`, the cytotoxicity call was “inactive”.
For `C[C@@H]1CCCCO[C@H](CN(C)Cc2ccccc2)[C@H](C)CN([C@@H](C)CO)C(=O)c2cc(NS(=O)(=O)c3ccccc3)ccc2O1`, the cytotoxicity call was “inactive”.
For `CC(C)NC(=O)Nc1ccc2c(c1)C(=O)N([C@@H](C)CO)C[C@@H](C)[C@H](CN(C)S(=O)(=O)c1cccs1)O2`, the cytotoxicity call was “inactive”.
`[N-]=[N+]=Nc1ccccc1[C@H]1OC(c2ccc(OCCCO)cc2)=N[C@@]1(CCS(=O)(=O)c1ccccc1)C(=O)NCc1ccccc1` was tested, and the cytotoxicity call was “inactive”.
`CCOc1cc2ncc(C#N)c(Nc3ccc(OCc4ccccn4)c(Cl)c3)c2cc1NC(=O)/C=C/[C@H]1CCCN1C` was tested, and the cytotoxicity call was “inactive”.
`C[C@@H]1CN([C@@H](C)CO)C(=O)c2cc(NC(=O)Cc3ccccc3)ccc2O[C@@H](C)CCCCO[C@H]1CN(C)S(=O)(=O)c1ccc(Cl)cc1` was tested, and the cytotoxicity call was “inactive”.
With `C[C@@H]1CCCCO[C@@H](CN(C)C(=O)Nc2ccc(C(F)(F)F)cc2)[C@H](C)CN([C@@H](C)CO)C(=O)c2cc(NC(=O)Nc3ccccc3)ccc2O1` the cytotoxicity call was “inactive”.
For `C[C@@H]1CN([C@H](C)CO)S(=O)(=O)c2ccc(C#CC3(O)CCCC3)cc2O[C@@H]1CN(C)C(=O)Nc1cccc(F)c1`, the cytotoxicity call was “inactive”.
`OC[C@H]1O[C@@H](O[C@@H]2[C@@H](O)[C@H](O)[C@H](O[C@@H]3[C@@H](O)[C@H](O)[C@H](O)O[C@@H]3CO)O[C@@H]2CO)[C@@H](O)[C@@H](O)[C@@H]1O` was tested, and the cytotoxicity call was “inactive”.
In the case of `C[C@H]1Cc2c(N)nn(C)c2NC1=O`, the cytotoxicity call is reported as “inactive”.
For `COCCOC(=O)N1C(=O)[C@@]2(c3cc(C#Cc4ccc(OC)cc4)ccc31)[C@H](c1ccc(O)cc1)N1[C@H](c3ccccc3)[C@H](c3ccccc3)OC(=O)[C@H]1[C@@H]2C(=O)N1CCc2cc(OC)c(OC)cc2C1`, the cytotoxicity call was “inactive”.
`O=C(C[C@@H]1CC[C@H]2[C@@H](COC[C@H](O)CN2C(=O)c2ccccc2F)O1)N1CCN(c2ccccc2)CC1` was tested, and the cytotoxicity call was “inactive”.
With `CC(C)NC(=O)Nc1ccc2c(c1)CC(=O)N([C@@H](C)CO)C[C@H](C)[C@@H](CN(C)Cc1ccc(-c3ccccc3)cc1)O2` the cytotoxicity call was “inactive”.
`C[C@@H]1CCCCO[C@H](CN(C)S(=O)(=O)c2ccc(Cl)cc2)[C@H](C)CN([C@@H](C)CO)C(=O)c2cc(NC(=O)c3ccccc3)ccc2O1` was tested, and the cytotoxicity call was “inactive”.
With `C[n+]1ccc(/C2=C3\C=CC(=N3)/C(c3cc[n+](C)cc3)=c3/cc/c4[n]3[Fe][n]3c2ccc3/C(c2cc[n+](C)cc2)=C2/C=CC(=N2)\C=4c2cc[n+](C)cc2)cc1` the cytotoxicity call was “inactive”.
For `Cc1noc(C)c1S(=O)(=O)N(C)C[C@@H]1Oc2ccc(N(C)C)cc2CC(=O)N([C@@H](C)CO)C[C@@H]1C`, the cytotoxicity call was “inactive”.
For `CO[C@H](C(=O)N(C)C[C@H]1OCc2ccccc2-c2c(n(C)c3ccccc23)C(=O)N([C@H](C)CO)C[C@H]1C)c1ccccc1`, the cytotoxicity call was “inactive”.
`COc1ccc(S(=O)(=O)N(C)C[C@H]2Oc3ccc(NC(=O)Nc4c(C)noc4C)cc3C(=O)N([C@H](C)CO)C[C@H]2C)cc1` was tested, and the cytotoxicity call was “inactive”.
With `O=C(C[C@H]1CC=CCC[C@@H](Cc2ccc(F)cc2)C(=O)OC[C@H](Cc2ccccc2)NC1=O)NCCO` the cytotoxicity call was “inactive”.
For `C[C@H]1CCCCO[C@@H](CN(C)C(=O)c2ccccc2)[C@@H](C)CN([C@@H](C)CO)C(=O)c2cc(NS(=O)(=O)c3ccc(Cl)cc3)ccc2O1`, the cytotoxicity call was “inactive”.

— the antibiotic and cytotoxicity screens of Wong et al. (2023)
